Results: paper PMC4336329 (PLoS ONE, 2015)
The campaign covered roughly 310,000 compounds. About 14,000 (4.5%) showed an effect of 50% or more. Effects have a minus sign here. This is one part of the list.

target: human ether-à-go-go-related gene (hERG) potassium channel (human, UniProt Q12809); assay: primary screen, population patch clamp on CHO cells stably expressing hERG
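Note: peak tail current of the secondary pulse compared with the same well before compound.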

Sequence of human ether-à-go-go-related gene (hERG) potassium channel (Q12809 whole entry, looked up): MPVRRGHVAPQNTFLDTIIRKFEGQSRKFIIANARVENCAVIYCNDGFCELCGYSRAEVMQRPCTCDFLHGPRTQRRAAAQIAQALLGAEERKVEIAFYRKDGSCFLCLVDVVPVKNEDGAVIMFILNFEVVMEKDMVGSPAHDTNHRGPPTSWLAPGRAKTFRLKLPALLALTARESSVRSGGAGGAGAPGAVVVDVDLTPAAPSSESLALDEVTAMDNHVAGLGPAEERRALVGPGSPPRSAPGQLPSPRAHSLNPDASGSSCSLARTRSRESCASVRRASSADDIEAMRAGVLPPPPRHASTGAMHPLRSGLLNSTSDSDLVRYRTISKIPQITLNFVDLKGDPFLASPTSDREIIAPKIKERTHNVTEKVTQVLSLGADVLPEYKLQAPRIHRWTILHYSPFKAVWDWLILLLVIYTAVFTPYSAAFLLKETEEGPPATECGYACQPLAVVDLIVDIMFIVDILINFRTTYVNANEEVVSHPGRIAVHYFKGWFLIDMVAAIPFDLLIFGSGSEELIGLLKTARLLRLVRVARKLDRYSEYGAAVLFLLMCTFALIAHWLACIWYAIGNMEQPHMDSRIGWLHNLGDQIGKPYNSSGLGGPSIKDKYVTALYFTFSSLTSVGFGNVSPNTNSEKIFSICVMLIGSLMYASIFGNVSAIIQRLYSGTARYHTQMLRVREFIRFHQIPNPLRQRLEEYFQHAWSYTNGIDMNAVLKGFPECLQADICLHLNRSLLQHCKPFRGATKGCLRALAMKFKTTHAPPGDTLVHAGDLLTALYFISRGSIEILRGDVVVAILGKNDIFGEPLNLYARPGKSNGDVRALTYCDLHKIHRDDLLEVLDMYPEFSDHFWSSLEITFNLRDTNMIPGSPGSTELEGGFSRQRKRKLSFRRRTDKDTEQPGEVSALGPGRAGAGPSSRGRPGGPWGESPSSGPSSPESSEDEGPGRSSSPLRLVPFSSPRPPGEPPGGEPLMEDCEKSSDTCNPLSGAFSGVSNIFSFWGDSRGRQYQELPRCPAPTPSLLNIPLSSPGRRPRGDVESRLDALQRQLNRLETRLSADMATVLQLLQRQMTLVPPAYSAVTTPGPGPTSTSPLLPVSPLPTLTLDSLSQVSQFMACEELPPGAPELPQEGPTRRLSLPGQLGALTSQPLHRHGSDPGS

Structure (SMILES) | hERG current change (%, negative = inhibition) at 10uM [%]
c1ccc(CSc2ncccn2)cc1 | 5.28
CC(C)NCC(O)c1ccc(C2CCCC2)cc1.O=C(O)/C=C\C(=O)O (stereo not shown) | -15.5
CCOC(=O)C1=C(C)N=C2SC(C(=O)OC)=CC(=O)N2C1c1ccc(F)cc1 (stereo not shown) | 11
COc1ccc(S(=O)(=O)N2CCC(C(=O)N3CCc4ccccc4C3)CC2)cc1C | -19.7
O=C(NCC1CCCCC1)C12CN(Cc3ccccc3)CC1C(c1cccc([N+](=O)[O-])c1)=NO2 (stereo not shown) | -21.8
CCOC(=O)C(C)/C(C)=N/NC(=O)CCC(=O)Nc1cc(C)ccc1C (stereo not shown) | 13.5
O=C(CN1CCC(C(=O)c2ccc(Cl)cc2)CC1)Nc1ccc2c(c1)OCCO2 | -44.9
Cc1nc2cc(-c3cccs3)nn2c(NCC(C)(C)CN(C)C)c1C | -12.2
O=C(CP(=O)(c1ccccc1)c1ccccc1)Nc1nc2ccc(Cl)cc2s1 | -3.84
O=C(N1CCOCC1)N1CCC(n2nnc3ccccc32)CC1 | 0.835
Cc1ccc(OC(=O)c2cccnc2)cc1 | 21.6
CC1(C)CC(=O)c2cc(OCC(=O)N3CCCCCC3)ccc2O1 | -18.7
CCOCCCNC(=S)Nc1ccc2nc(N3CCN(CC)CC3)cc(C)c2c1 | 4.36
O=C(COc1cc(F)ccc1[N+](=O)[O-])NCCCc1ccccc1 | -34.6
Cc1ccc(NC(=O)CSCC(=O)NCc2cccc(C(F)(F)F)c2)cc1 | -2.27
CC(C)(C)S(=O)(=O)c1nc2ccccc2s1 | 6.74
Cl.OC(C#CCN1CCOCC1)(c1ccccc1)C1CCCC1 (stereo not shown) | 14.5
CCOC(=O)c1cccc(NC(=O)CSc2nnc(C3CCCCC3)n2CC)c1 | -27.9
O=C(CC1C(=O)NCCN1Cc1ccc(F)c(F)c1)NCCCn1ccnc1 (stereo not shown) | 19
Cc1ccsc1/C=N/NC(=O)c1nnn(-c2nonc2N)c1C(C)C | 5.93

Structure (SMILES) | hERG current change (%, negative = inhibition) at 10uM [%]
CSc1nnc(NC(=O)c2ccc(C)c(S(=O)(=O)N3CCOCC3)c2)s1 | 0.594
CCOC(=O)c1cc(-c2ccccc2C)n(Cc2cc(C)no2)n1 | -7.87
COc1cc(CC(NC(C)=O)C(=O)NC2CCN(C(=O)c3ccc(C)cc3)CC2)cc(OC)c1 (stereo not shown) | -12
CCOc1ccc(N(CC(=O)NCCC2=CCCCC2)S(=O)(=O)c2ccccc2)cc1 | 24.3
Nc1cnccc1C(=O)O | 24.5
CC(Oc1ccccc1)C(=O)Nc1cccc(NC(=O)c2ccco2)c1 (stereo not shown) | -19.2
CC1CC(C)CN(S(=O)(=O)N2CCCC(C(=O)NCCc3ccc(Cl)cc3)C2)C1 (stereo not shown) | 6.84
Cc1ccc(NC(=O)NC2CCCCCCC2)cc1 | 15.7
CC(=O)N(CCCN(C)C)c1nc2ccc(C)cc2s1.Cl | -7.07
CCOC(=O)N1CCN(c2c(-c3ccccc3)c3cc(Cl)ccc3[nH]c2=O)CC1 | -11.4
CC(/C=N/n1cnnc1)=C\c1ccco1 | -16.9
CC(C)Cc1nnc(NS(=O)(=O)c2ccc(Cl)cc2)s1 | 8.2
CN(C(=O)c1cccnc1)c1nnc(-c2cccnc2)s1 | 14.4
CC(C)Cn1c(N)c(C(=O)COC(=O)c2ccc([N+](=O)[O-])o2)c(=O)n(C)c1=O | -69.5
CCOC(=O)C(C)n1ncn2cccc2c1=O (stereo not shown) | 11.9
NC(=O)C1(N2CCCCC2)CCN(Cc2nc3ccccc3c(=O)[nH]2)CC1 | -0.257
O=C(NCc1ccc2c(c1)OCO2)c1ccc(Cl)nc1 | -22.2
CCCn1nnnc1NCc1ccccc1C | 14.7
Cc1nc(CCNC(=O)C2CCC(=O)N(Cc3cccc(F)c3)C2)sc1C (stereo not shown) | 2.11
Cc1ccsc1/C=C1/SC(=O)N(CC(=O)N2CCCC2)C1=O | 8.21

Structure (SMILES) | hERG current change (%, negative = inhibition) at 10uM [%]
Cc1ccc(NCc2cccnc2)cc1 | 2.82
Cc1ccn2c(C(=O)NN=C3CCCCCCC3)c(C)nc2c1 | 9.89
CCOC(=O)CN1C(=O)C(O)=C(C(C)=O)C1c1ccccc1 (stereo not shown) | 11.3
O=C(O)C1CCCN1c1ncnc2c1oc1ccccc12 (stereo not shown) | 13.7
CC(C)C(NC(=O)c1ccccc1F)C(=O)Nc1ccc2c(c1)OCO2 (stereo not shown) | 0.195
CN(CCC#N)C(=O)COC(=O)c1c2c(nc3ccccc13)/C(=C/c1ccco1)CC2 | 4.03
CC1CCC/C(=N\NC(=O)COc2ccc(Cl)cc2Cl)C1 (stereo not shown) | -6.6
Cc1ccc(OCC(=O)N/N=C2\CCOc3c(C)cccc32)cc1 | -1.22
CC(=O)N1CC(C)Sc2ccc(S(=O)(=O)NCc3ccc(F)cc3)cc21 (stereo not shown) | -49.6
Cc1cccc(C(C)(C)C)c1OCCCCN1CCCC1.O=C(O)C(=O)O | -38.2
O=C(Cc1cccc(F)c1)N1CCCC(CO)(Cc2ccc(F)cc2F)C1 (stereo not shown) | -9.84
O=C(c1ccccc1)N1CCN(C(=O)c2nn3c(C(F)(F)F)cc(-c4ccco4)nc3c2Cl)CC1 | 23.6
COc1ccc(-c2[nH]ncc2N=Nc2ccccc2)cc1 | 21.5
CSC(=O)NC12CC3CC(CC(C)(C3)C1)C2 | 2.42
COc1ccc2c(=O)cc(-c3ccccc3F)oc2c1 | 1.75
CC(=O)c1cccc(NC(=O)CN2C(=O)C3C4C=CC(C4)C3C2=O)c1 (stereo not shown) | 7.68
COc1ccc(N2CCN(C3=CC(=O)N(c4cccc(Cl)c4)C3=O)CC2)cc1 | -41.7
COc1ccc(C)cc1NC(=O)c1cccc(-c2ccc(OC(C)=O)cc2)c1 | 28.5
